Measurements: PubChem BioAssay (Tox21)
Values joined by “and” are separate entries in the source; they are usually repeats but may differ in a detail not shown here. Equal values may be shown once. The inconclusive results got no clear call from the source; some entries with a clear call stand among them for comparison. For some of these results: A potency beside an inconclusive call is a rough fit, not a confirmed value. Active and inactive are the calls of the source. Unless noted, calls come from the whole dose curve; as a rule, active = well fitted curve in the direction sought with a large enough effect in the repeat runs; inconclusive = weak or mixed curves; inactive = no such curve, though single readings can be large; an effect the other way counts as inactive or inconclusive.

Assays:
[1] = qHTS assay to identify small molecule agonists of the androgen receptor (AR) signaling pathway in the presence of an antagonist - cell viability counter screen (AID 1259379); conditions: MDA-kb2 viability, CellTiter-Fluor, 16 h; series mostly up to 92.4 µM; note: nearly all actives have a fitted effect of over 25% in size
Procedure, shortened: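 In MDA-kb2 cells (human breast carcinoma, MMTV-luciferase), compounds at 15 concentrations plus 3.0uM nilutamide; 16 hr, 37C, 0% CO2; CellTiter-Fluor fluorescence read for viability.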

[2] = qHTS assay to identify small molecule agonists of the estrogen receptor beta (ER-beta) signaling pathway - cell viability counter screen (AID 1259380); conditions: ER-beta-bla HEK293T viability, CellTiter-Glo luminescence, 16 h; series mostly up to 92.4 µM; note: nearly all actives have a fitted effect of over 30% in size
Procedure, shortened: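 Viability of ER-beta-UAS-bla HEK293T cells was determined by CellTiter-Glo luminescence following 16 hr treatment with test compounds at 37C.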

[3] = target: Progesterone receptor (Homo sapiens) (UniProt P06401); experiment: qHTS assay to identify small molecule agonists of the progesterone receptor (PR) signaling pathway (AID 1346784; calls by dose curve; note: nearly all actives have a fitted effect of over 30% in size); conditions: PR-UAS-bla HEK293T, beta-lactamase FRET ratio, 16 h; activation: at 92.4 µM (top of the series) unless noted
Sequence of UniProt P06401 (P06401 whole entry, looked up): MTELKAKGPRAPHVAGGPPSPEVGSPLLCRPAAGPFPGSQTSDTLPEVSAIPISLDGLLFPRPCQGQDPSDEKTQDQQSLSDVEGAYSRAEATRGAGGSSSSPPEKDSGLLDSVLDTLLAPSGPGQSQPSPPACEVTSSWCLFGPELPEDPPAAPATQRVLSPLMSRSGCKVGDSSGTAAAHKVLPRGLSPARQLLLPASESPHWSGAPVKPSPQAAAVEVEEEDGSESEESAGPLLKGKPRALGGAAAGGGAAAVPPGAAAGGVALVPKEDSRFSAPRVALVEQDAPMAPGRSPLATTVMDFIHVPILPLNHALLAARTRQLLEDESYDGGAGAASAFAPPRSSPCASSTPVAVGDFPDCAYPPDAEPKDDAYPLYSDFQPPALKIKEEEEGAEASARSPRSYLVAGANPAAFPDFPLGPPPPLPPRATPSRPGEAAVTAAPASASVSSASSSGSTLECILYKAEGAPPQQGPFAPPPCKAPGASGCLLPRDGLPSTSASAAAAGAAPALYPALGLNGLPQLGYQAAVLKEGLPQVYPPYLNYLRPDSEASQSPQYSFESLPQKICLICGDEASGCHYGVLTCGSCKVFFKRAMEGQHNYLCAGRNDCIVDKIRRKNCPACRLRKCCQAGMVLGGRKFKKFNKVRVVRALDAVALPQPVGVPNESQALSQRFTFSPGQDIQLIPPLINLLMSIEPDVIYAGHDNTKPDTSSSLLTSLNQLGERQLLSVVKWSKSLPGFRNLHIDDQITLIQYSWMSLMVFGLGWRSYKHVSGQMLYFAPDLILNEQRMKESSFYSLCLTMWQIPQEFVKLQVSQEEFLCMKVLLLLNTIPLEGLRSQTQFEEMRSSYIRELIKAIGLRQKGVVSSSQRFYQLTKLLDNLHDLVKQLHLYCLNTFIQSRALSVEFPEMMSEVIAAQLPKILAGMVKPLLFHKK
Procedure, shortened: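 Cells (PR-UAS-bla HEK 293T, GripTite) were plated in assay medium containing 2% charcoal-stripped FBS and incubated 6 hr. Test compounds in DMSO were added for 16 hr at 37C. FRET substrate was then loaded for 2 hr at room temperature before fluorescence reading.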

[4] = target: Progesterone receptor (Homo sapiens) (UniProt P06401); experiment: qHTS assay to identify small molecule antagonists of the progesterone receptor (PR) signaling pathway (AID 1346795; active = well fitted inhibition curve with a large enough effect in the signal ratio in the repeat runs, not every such curve was filed as active; inconclusive = weak or mixed curves; the % refers to the signal ratio); conditions: PR-UAS-bla HEK293T, beta-lactamase FRET ratio, 16 h; activity change, negative = inhibition: at 92.4 µM (top of the series) unless noted
Procedure, shortened: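 Antagonist mode: compounds tested against 1 nM (final) promegestone stimulation in HEK293T cells expressing PR-UAS-bla reporter, 16 hr at 37C, 5% CO2; beta-lactamase activity detected via B/G FRET substrate after 2 hr at room temperature.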

[5] = qHTS assay to identify small molecule agonists of the progesterone receptor (PR) signaling pathway - cell viability counter screen (AID 1346799; calls by dose curve; note: nearly all actives have a fitted effect of over 45% in size); conditions: PR-UAS-bla HEK293T viability, CellTiter-Glo luminescence, 16 h; series mostly up to 92.4 µM
Procedure, shortened: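 Cells (PR-UAS-bla HEK293T) are plated at 3,000/well in 2% charcoal-stripped FBS medium, rested 6 hr, dosed and incubated 16 hr at 37C. CellTiter-Glo is then added and luminescence measured after 30 min at room temperature.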

[6] = qHTS assay to identify small molecule antagonists of the TGF-beta/Smad signaling pathway - cell viability counter screen (AID 1346824); conditions: SBE-bla HEK293T viability, CellTiter-Glo luminescence; series mostly up to 76.8 µM; note: nearly all actives have a fitted effect of over 50% in size
Procedure, shortened: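 SBE-bla HEK 293T cells were plated overnight at 37 C, then given compounds in DMSO plus TGF-beta1 (added as 0.25 ng/mL solution) for 5 hr. After the bla read, CellTiter-Glo was added to the same wells and luminescence read after 30 min at room temperature.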

[7] = target: Thyrotropin receptor (Homo sapiens) (UniProt P16473); experiment: qHTS assay to identify small molecule antagonists of the thyroid stimulating hormone receptor (TSHR) signaling pathway (AID 1259385; calls by dose curve; note: nearly all actives have a fitted effect of over 20% in size; for activity change, negative = inhibition: % is set by controls: 0 for no effect and ±100 for the full control effect); conditions: TSHR-HEK293 cAMP HTRF, TSH-stimulated antagonist mode; activity change, negative = inhibition: at 92.4 µM (top of the series) unless noted
Sequence of UniProt P16473 (P16473 whole entry, looked up): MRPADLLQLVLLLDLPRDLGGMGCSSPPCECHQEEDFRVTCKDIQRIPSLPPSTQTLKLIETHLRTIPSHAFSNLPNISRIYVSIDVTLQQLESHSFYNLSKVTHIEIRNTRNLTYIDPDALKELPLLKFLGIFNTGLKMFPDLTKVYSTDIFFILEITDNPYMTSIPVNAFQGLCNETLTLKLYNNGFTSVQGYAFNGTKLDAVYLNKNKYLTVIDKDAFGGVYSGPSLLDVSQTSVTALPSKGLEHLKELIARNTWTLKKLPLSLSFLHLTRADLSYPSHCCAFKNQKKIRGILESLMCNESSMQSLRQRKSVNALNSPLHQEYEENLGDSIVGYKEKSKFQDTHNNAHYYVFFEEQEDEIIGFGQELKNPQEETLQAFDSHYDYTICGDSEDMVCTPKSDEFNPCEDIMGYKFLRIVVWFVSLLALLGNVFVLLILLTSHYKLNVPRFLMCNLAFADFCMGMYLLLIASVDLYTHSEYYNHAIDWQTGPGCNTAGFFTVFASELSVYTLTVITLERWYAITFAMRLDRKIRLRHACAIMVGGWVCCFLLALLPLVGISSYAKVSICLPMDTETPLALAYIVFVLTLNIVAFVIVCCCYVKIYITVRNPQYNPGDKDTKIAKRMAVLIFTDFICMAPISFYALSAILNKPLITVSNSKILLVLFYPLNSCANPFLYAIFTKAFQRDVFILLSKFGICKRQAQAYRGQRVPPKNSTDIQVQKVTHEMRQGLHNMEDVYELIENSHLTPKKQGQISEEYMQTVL
Procedure, shortened: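 TSHR-HEK293 cells were plated and held 18 h at 37C/5% CO2, then given compound plus Ro20-1724 and stimulated with TSH at 1.5 ng/mL final. After 30 min at room temperature, cAMP was detected with cAMP-d2/anti-cAMP-cryptate (1 h) by fluorescence.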

[8] = qHTS assay to identify small molecule antagonists of the progesterone receptor (PR) signaling pathway - cell viability counter screen (AID 1346798); conditions: PR-UAS-bla HEK293T viability, CellTiter-Glo luminescence, 16 h; series mostly up to 92.4 µM; note: nearly all actives have a fitted effect of over 50% in size
Procedure, shortened: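 Counter screen for cytotoxicity: viability of PR-UAS-bla HEK293T cells was measured with CellTiter-Glo luminescence following 16 hr compound exposure in the presence of R5020.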
Potency is the fitted concentration of half-maximal effect; tags give direction and shape of the fitted curve or compound fluorescence and quenching.

In the case of OC(Cc1ccccc1Cl)(Cn1[nH]cnc1=S)C1(Cl)CC1 (centres undefined), the Potency [1] is reported as inconclusive: 68.6 µM [cytotoxic, single point], the Potency [2] is reported as inconclusive: 12.2 µM [cytotoxic, full curve] and the Potency [3] is reported as inconclusive: 30.6 µM [falling, partial curve]. The Potency [4] was active: 24.3 µM, the Potency [5] was inconclusive: 43.3 µM and the Potency [6] was inconclusive: 49 µM [cytotoxic, single point].
In the case of CCC(C)(C)O, the Potency [2] is reported as inconclusive: 68.6 µM [rising, partial curve, poor fit], the activity change, negative = inhibition [7] is reported as inconclusive: -2.49% and the Potency [8] is reported as “inactive”.
For Nc1n[nH]c(N)n1, the Potency [1] was inconclusive: 17.5 µM [cytotoxic, partial curve, poor fit], the Potency [4] was inconclusive: 15.6 µM [falling, full curve] and the Potency [8] was inconclusive: 7.84 µM [rising, full curve].
With CCCCC(C#N)(Cn1cncn1)c1ccc(Cl)cc1 (centres undefined) the Potency [2] was inconclusive: 48.4 µM [cytotoxic, partial curve, poor fit] and inconclusive: 17.2 µM [cytotoxic, full curve], the Potency [7] was active: 60.9 µM and active: 54.5 µM and the Potency [5] was inconclusive: 48.4 µM [rising, partial curve].
With c1ccc(-c2cccc(-c3ccccc3)c2)cc1 the Potency [1] was “inactive” and the Potency [5] was inconclusive: 2.76 µM [cytotoxic, single point].
For O=P(O)(O)CCCl, the Potency [2] was inconclusive: 76.6 µM [rising, partial curve, poor fit].
For CCCCC1C(=O)NC(=O)N(C2CCCCC2)C1=O (centres undefined), the Potency [2] was “inactive”.
